# Test results reported in paper PMC4336329 (PLoS ONE, 2015).
# Among all 310,000 compounds or so, about 2,200 (0.71%) showed an effect of 50% or more. The effect is printed as a negative number. This is one part of the list.
# Molecular target: human ether-à-go-go-related gene (hERG) potassium channel (human, UniProt Q12809)
# Experiment: primary screen, population patch clamp on CHO cells stably expressing hERG
# Sequence of human ether-à-go-go-related gene (hERG) potassium channel (Q12809 whole entry, looked up): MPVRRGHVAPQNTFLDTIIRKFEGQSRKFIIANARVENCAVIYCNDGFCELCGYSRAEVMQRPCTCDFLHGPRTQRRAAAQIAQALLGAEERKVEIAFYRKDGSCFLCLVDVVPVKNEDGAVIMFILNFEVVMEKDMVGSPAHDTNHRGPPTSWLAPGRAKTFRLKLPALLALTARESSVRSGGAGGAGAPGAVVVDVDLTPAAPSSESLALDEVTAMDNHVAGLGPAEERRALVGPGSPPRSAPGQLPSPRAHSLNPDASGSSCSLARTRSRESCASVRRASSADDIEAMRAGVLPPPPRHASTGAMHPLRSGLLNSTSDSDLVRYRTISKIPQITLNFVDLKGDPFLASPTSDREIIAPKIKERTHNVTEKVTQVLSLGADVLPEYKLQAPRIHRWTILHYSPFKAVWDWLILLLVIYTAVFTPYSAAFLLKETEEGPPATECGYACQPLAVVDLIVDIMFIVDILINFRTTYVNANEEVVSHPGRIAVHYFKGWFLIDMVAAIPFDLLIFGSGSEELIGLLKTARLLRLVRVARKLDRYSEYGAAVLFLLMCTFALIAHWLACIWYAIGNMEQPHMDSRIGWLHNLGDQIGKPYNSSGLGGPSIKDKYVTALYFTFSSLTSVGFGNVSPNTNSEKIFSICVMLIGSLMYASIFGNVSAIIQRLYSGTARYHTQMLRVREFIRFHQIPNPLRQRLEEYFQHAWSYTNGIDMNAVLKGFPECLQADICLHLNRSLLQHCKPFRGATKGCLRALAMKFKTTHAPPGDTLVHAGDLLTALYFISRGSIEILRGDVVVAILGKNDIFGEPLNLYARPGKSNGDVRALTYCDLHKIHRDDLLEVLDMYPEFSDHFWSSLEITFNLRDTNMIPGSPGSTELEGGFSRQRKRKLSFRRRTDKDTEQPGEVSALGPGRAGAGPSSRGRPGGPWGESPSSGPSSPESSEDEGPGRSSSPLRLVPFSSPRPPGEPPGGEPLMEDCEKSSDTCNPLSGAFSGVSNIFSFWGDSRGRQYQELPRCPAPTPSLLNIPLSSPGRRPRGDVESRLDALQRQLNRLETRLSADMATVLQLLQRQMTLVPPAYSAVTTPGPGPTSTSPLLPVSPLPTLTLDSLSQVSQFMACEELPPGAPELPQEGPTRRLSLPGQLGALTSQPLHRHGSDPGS
row,Compound,"hERG current change (%, negative = inhibition) at 1uM [%]"
1,Cc1[nH]nc2c1C(c1cn[nH]c1-c1ccc(F)cc1)C(C#N)=C(N)O2 (stereo not shown),15.6
2,Cc1cccn2c(=O)c3cc(C#N)c(=NC(=O)c4cccnc4)n(CC4CCCO4)c3nc12 (stereo not shown),-10.2
3,COc1ccc(Cl)cc1NC(=O)C1(c2cccs2)CCOCC1,4.62
4,COc1cccc(/C=C(/C#N)c2ccc(Cl)cc2)c1OCc1cccc(C(=O)O)c1,14.3
5,Cc1ncoc1C(=O)N1CCCC(C(=O)c2ccc(-c3ccccc3)cc2)C1 (stereo not shown),10.9
6,C[N+](C)(C)CC#CCN1CCCC1=O.[I-],26.1
7,COc1cc(/C=C/c2ccc3cccc([N+](=O)[O-])c3n2)ccc1OCC(=O)O,15.8
8,COc1ccc(Cl)cc1NC(=O)C1CCCN(c2ncnc3c2nc2n3CCCCC2)C1 (stereo not shown),6.84
9,CCc1c(C)sc(NC(=O)c2ccoc2C)c1C(N)=O,12.9
10,CCCCn1c(N)c(N(CCC(C)C)C(=O)COC(=O)c2ccco2)c(=O)[nH]c1=O,26.3
11,Cc1nc(N2CCOCC2)[nH]c(=O)c1CCC(C)C,0.0143
12,Cc1cccc(COc2ccc(/C=C3/C(=O)N(C)C(=S)N3C)cc2)c1,14.5
13,CC(=O)Nc1ccc(S(=O)(=O)N(C)CC(=O)OCC(=O)N(C)c2ccccc2)cc1,17.9
14,Cc1cc(=O)[nH]c(SCC(=O)Nc2ccc(S(N)(=O)=O)cc2)n1,6.42
15,CC(C)OC(=O)c1c(N)sc2c1CCCC2,4.85
16,CCn1ncc(/C=N/NC(=O)c2ccc3c(c2)OCO3)c1C,15.9
17,Cc1c(-c2nnc(SCC(=O)O)n2-c2ccccc2Br)nnn1-c1ccccc1.O,11.3
18,COc1ccc(OC)c(NC(=O)C(=S)NC2CCCCC2)c1,13
19,O=C(CN1CCc2ccccc2C1)Nc1ccccc1F,12.9
20,COc1ccc(/C=N/NC(=O)c2cc(-c3cccnc3)nc3ccccc23)c(OC)c1,13.9
21,CCC1C(=O)NCCN1C(=O)c1ccc2nc(Cc3cccc(Cl)c3)oc2c1 (stereo not shown),2.61
22,O=C1NC(c2ccco2)Nc2ccccc21 (stereo not shown),6.51
23,C[C@H](NC(=O)c1nc[nH]c1C(=O)NCC(=O)OCc1ccccc1)c1ccccc1,6.35

row,Compound,"hERG current change (%, negative = inhibition) at 1uM [%]"
1,CCc1ccccc1N(CC)C(=O)C1CCN(c2ncnc3c2nc2n3CCCCC2)CC1,1.87
2,COc1ccc(CN2Cc3cccc4c3[C@@H](CC2=O)[C@H](O)[C@H](O)C4)cc1,11.4
3,N#C/C(=C/c1ccc(N2CCCCCC2)o1)c1ccc(Cl)cc1,11.3
4,COc1ccccc1CNC(=O)CCSCc1cccc(Cl)c1,1.23
5,O=P(OC1CCCCC1)(OC1CCCCC1)C(O)c1ccc(Cl)cc1Cl (stereo not shown),-3.1
6,CSc1nc2ccc(Br)cc2[nH]1,9.82
7,Cc1cccc(OCc2nnc(-c3ccc(F)cc3)o2)c1,15.9
8,O=C(Nc1nc(-c2ccc(Cl)cc2)cs1)C1=COCCO1,9.53
9,Cc1nc(N2CCN(C(=O)c3ccco3)CC2)c(C#N)c2c1CCCC2,11.8
10,O=C(CCc1ccccc1)Nc1cccc(NC(=O)CCc2ccccc2)c1,1.59
11,Cc1ccn2c(c1)nc(=S)n2C(=O)c1ccco1,-1.69
12,O=C(Nc1c2c(nn1-c1ccccc1)CS(=O)C2)c1ccco1 (stereo not shown),10.5
13,COc1ccc(S(=O)(=O)N2CCN(C(=O)COc3ccc(C)c(C)c3)CC2)cc1OC,-11.1
14,COc1ccc(-n2c(C)cc(=O)[nH]c2=O)cc1,18.4
15,CC(=O)C1=C(O)C(=O)N(Cc2ccccc2)C1c1cccc([N+](=O)[O-])c1 (stereo not shown),4.38
16,CCOc1ccc(C(=O)NN2C(=S)NC(C)(C)C=C2C)cc1,15.5
17,CCOC(=O)c1c(NC(=S)N2CCOCC2)sc(C)c1C,14.5
18,CCCCNC(=O)CSc1nc(O)c(Cc2ccc(OC)cc2)c(=O)[nH]1,7.52
19,CCN(CC)c1ccc(C=C(c2nnnn2-c2ccccc2)c2nnnn2-c2ccccc2)cc1,6.33
20,CC(C)c1nnc(NC(=O)CCC(=O)N2CCN(c3ccccc3F)CC2)s1,13.1
21,CC(C)(C)c1ccc(NC(=O)COc2ccc(-n3ccnc3)cc2)cc1,3.68
22,O=C(N/C(=C/c1ccco1)C(=O)N1CCOCC1)c1cccs1,11.9
23,Cc1nc(NCCc2ccccc2)c2oc3ccccc3c2n1,18.7

row,Compound,"hERG current change (%, negative = inhibition) at 1uM [%]"
1,Cc1nc2sc3c(c2c(=O)[nH]1)CCC3,6.19
2,COCCn1c(SC)nnc1-c1c[nH]c2ccccc12,15.9
3,CCOC(=O)CN(C(=O)CNC(=O)c1ccco1)C(C(=O)NC1CCCCC1)c1cccnc1 (stereo not shown),17.7
4,O=C1COc2ccc(S(=O)(=O)N3CCC(C(=O)NCc4ccccc4)CC3)cc2N1,8.27
5,O=C(Nc1cc(Cl)cc(Cl)c1)c1coc(=O)c(Br)c1,15.8
6,COc1ccc(S(=O)(=O)N2CCN(C3CCCC(C)C3)CC2)cc1.O=C(O)C(=O)O (stereo not shown),2.71
7,CCOC(=O)CSc1nc(N)c(C#N)c(-c2cccs2)c1C#N,11.6
8,Cc1ccc2c(c1)Oc1ccc([N+](=O)[O-])cc1C(=O)N2,8.4
9,Cc1ccc(S(=O)(=O)Nc2ccc(NC(=O)Nc3cccc(C(F)(F)F)c3)cc2)cc1,12.3
10,COC(=O)c1ccccc1S(=O)(=O)N1CCC(C(=O)OCc2cccc(OC)c2OC)CC1,-3.4
11,CCc1ccc(OCC(=O)NC(NC(=S)Nc2ccccc2C)C(Cl)(Cl)Cl)cc1 (stereo not shown),5.61
12,CN(C(=O)CC1C(=O)NCCN1Cc1ccccc1F)C1CCOCC1 (stereo not shown),9.26
13,Cc1c(C(=O)NNS(=O)(=O)c2ccccc2)sc(=S)n1C,3.6
14,COC(=O)C(Nc1nccs1)(OC)C(F)(F)F (stereo not shown),-4.8
15,O=C1/C(=C/c2cccs2)CCc2ccccc21,3.21
16,Cc1cc(C)cc(OCC(=O)OCC(=O)N2CC(=O)Nc3ccccc32)c1,0.901
17,CCn1cc(-c2n[nH]c(=S)n2-c2ccc(C)cc2Br)c(=O)c2ccc(C)nc21,12.7
18,CCOc1nc(C)ccc1-c1noc(CC)n1,17.4
19,CC(C)C[C@H](NC(=O)Nc1ccc(S(N)(=O)=O)cc1)C(=O)O,8.92
20,O=C(Nc1cccc(S(=O)(=O)N2CCCCC2)c1)C1=NN(c2ccccc2)C(=O)CC1,0.762
21,CC(=O)c1c(C)[nH]c(C(=O)NCCc2c[nH]c3ccccc23)c1C,11.1
22,CC(=O)NS(=O)(=O)c1ccc(NC(=O)c2ccc(-n3nc(C)cc3C)cc2)cc1,5.8
23,CCOc1ccc2nc(NC(=O)CCC(=O)c3cccs3)sc2c1,5.4

row,Compound,"hERG current change (%, negative = inhibition) at 1uM [%]"
1,CC(C)(CN1CCc2ccccc2C1)NS(=O)(=O)c1ccccc1,12.6
2,COc1ccc(Cl)cc1NC(=O)c1[nH]nc(OC)c1[N+](=O)[O-],10.8
3,O=C(Cc1ccccc1)Nc1ccc(N2CCOCC2)cc1N1CCOCC1,4.78
4,O=C(NN=C1CCCC1)c1ccc(O)cc1O,8.84
5,Cc1cccc(NCCC#N)c1,15
6,O=C(CNC(=O)c1ccccc1C(F)(F)F)N/N=C/c1cccs1,3.32
7,O=C(NCCCO)/C(=C/c1ccco1)NC(=O)c1ccc(Br)o1,18
8,c1ccc(Nc2ncnc3sc4c(c23)CCC4)cc1,-0.67
9,CSCCC(NC(=O)COc1ccccc1)C(=O)N1CCC(C(N)=O)CC1 (stereo not shown),7.88
10,Cc1ccc2c(c1)CCCN2CC(=O)Nc1cc(S(=O)(=O)N2CCCC2)ccc1Cl,2.41
11,CCn1c(COc2ccccc2OC)nc2ccccc21,12.7
12,CC1=CCC(/C=N\Nc2nnc3c(n2)[nH]c2ccccc23)CC1 (stereo not shown),4.4
13,CCn1c(SCC(=O)Nc2cc(NC(C)=O)ccc2OC)nnc1-c1cccnc1,7.42
14,O=c1c2c3c(sc2nc2n1CCCS2)CCCC3,0.926
15,O=C1C2CCCN2C(c2ccc(Cl)cc2)N1c1ccccn1 (stereo not shown),1.91
16,CN(C)S(=O)(=O)c1ccc(-n2cccc2)cc1,3.19
17,COc1ccc(C(=O)c2sc(NC(C)C)nc2N)cc1OC,2.38
18,C=CCN(Cc1nc(-c2cc(OC)ccc2OC)oc1C)C1CCS(=O)(=O)C1 (stereo not shown),13.7
19,COc1ccccc1NC(=O)c1cc(C)nc2ccccc12,14.4
20,O=C(NCCCn1ccnc1)C(F)(F)C(F)(F)C(=O)NCCCn1ccnc1,14.4
21,C=CCn1c2ccccc2c2nnc(SCC(=O)O)nc21,17.6
22,CCOc1ccc(NC(=O)C(=O)NCCCn2ccnc2)cc1,11.3
